Experimental data from the supplement of paper PMC3334620.
The full ranking holds about 33,000 sequences; the median of “E-score (-0.5 to 0.5)” is about -0.012, and the highest 2% start at about 0.29. The list shows a part of the results.

These sequences were tested against T1, Ybr033w (UniProt P38073) (assay: PBM E-score (8-mer binding enrichment) (E-score (-0.5 to 0.5)); higher = stronger / more preferred TF binding; most listed sequences are background and not binding sites). Conditions: protein concentration: 200 nM; construct: GST-full length.
T1 sequence: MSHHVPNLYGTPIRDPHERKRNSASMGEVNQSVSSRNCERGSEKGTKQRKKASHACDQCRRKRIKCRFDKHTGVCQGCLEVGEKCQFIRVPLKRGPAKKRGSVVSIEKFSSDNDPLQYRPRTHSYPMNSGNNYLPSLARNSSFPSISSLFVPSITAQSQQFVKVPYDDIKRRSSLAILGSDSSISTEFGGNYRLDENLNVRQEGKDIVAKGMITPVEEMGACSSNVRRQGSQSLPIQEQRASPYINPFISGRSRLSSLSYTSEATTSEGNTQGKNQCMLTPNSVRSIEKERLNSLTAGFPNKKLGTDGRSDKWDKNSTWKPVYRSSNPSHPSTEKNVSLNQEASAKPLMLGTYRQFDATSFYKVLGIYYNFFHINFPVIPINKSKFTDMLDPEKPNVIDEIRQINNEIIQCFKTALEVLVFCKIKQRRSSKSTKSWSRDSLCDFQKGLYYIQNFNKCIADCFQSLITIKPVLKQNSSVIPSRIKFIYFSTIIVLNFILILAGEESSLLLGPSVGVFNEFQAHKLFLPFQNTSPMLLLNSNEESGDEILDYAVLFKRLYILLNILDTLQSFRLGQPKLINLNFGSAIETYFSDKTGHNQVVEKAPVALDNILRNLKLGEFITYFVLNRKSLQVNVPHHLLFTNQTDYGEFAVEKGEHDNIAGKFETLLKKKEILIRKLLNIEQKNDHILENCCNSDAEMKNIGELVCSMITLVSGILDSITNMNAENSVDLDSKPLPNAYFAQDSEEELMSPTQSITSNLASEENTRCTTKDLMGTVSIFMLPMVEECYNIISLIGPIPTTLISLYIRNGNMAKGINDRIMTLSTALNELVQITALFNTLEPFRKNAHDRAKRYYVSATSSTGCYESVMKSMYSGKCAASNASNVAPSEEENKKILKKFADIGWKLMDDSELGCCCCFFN
Summary of the method: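 GST-tagged yeast TFs (full-length or DNA-binding domain) were made by PURExpress in vitro transcription/translation and applied at about 100-200 nM to universal all-10-mer Agilent arrays. The arrays were made double-stranded by primer extension, on fresh or once-stripped slides. Bound protein was detected with fluorescent anti-GST, and scans were normalised with masliner. Each ungapped eight-base word, pooled with its reverse complement, received an E-score (modified Wilcoxon-Mann-Whitney statistic) from the Universal PBM Analysis Suite.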

Row | Sequence | PBM E-score
1 | CGAATTGA | 0.096
2 | AAGGAACT | 0.032
3 | ACATATAG | 0.115
4 | TGTGAAAA | 0.0945
5 | CTCCACCC | -0.314
6 | GATAGATA | 0.212
7 | GATCAGGA | -0.0416
8 | ACAGGACT | -0.072
9 | AAGATGGT | 0.126
10 | AGGGGTAA | -0.272
11 | AACCGGGG | -0.135
12 | AACACCGG | 0.0134
13 | CGAGGCGC | -0.0647
14 | GACGCGCA | 0.0817
15 | AATGACGC | -0.0537
16 | TATCATAA | 0.134
17 | CGAACCGC | -0.157
18 | CGACGCGC | 0.029
19 | ATCGAGAG | -0.0389
20 | AGTGAGCA | -0.0682
21 | AGAGCGTA | -0.149
22 | CTTGTGCA | -0.00671
23 | ACCCTACC | -0.0594
24 | TACGATGA | 0.137
25 | CTCTGGGC | -0.179

Row | Sequence | PBM E-score
26 | GCCTTAAC | -0.0834
27 | CCTGTAGC | -0.353
28 | TGGACAAA | 0.152
29 | CCACTGAC | -0.302
30 | GATATCAC | -0.00392
31 | CGTTGCAC | -0.0321
32 | AATTCGAC | -0.202
33 | ACAGTTCG | 0.0358
34 | CGCACCGA | -0.217
35 | CCGTTTCG | -0.0141
36 | GACTAGTA | 0.0157
37 | ACCCCCCG | -0.375
38 | ACTATTTC | 0.237
39 | CGAAGGAC | -0.138
40 | ACAAGCTC | -0.0954
41 | CACTGTCG | -0.137
42 | GGCCAGCC | -0.29
43 | GGACTGAC | -0.286
44 | ATCTCCAT | -0.0565
45 | AATTTGAG | 0.121
46 | AATCAGAA | 0.168
47 | TTTGAAAA | 0.263
48 | ATTTATTA | 0.293
49 | CGCACAAG | -0.0851
50 | AAAAGATT | 0.129

Row | Sequence | PBM E-score
51 | CAGAGCTA | -0.286
52 | CACATTTC | 0.147
53 | CAATACAA | 0.222
54 | GGTGCCTA | -0.0138
55 | GAGGAGAA | -0.0563
56 | CATAACTA | 0.0651
57 | CAGGGAGC | -0.283
58 | CTCAGTGC | -0.145
59 | CTTAGCCA | -0.154
60 | CGGGTACG | -0.232
61 | TACATGTA | 0.098
62 | CCCCCCAC | -0.411
63 | CCAGACTA | 0.0717
64 | ATGGGACC | -0.164
65 | CCAATTAG | 0.177
66 | CTAGCGCA | -0.0377
67 | CTCGGGAA | 0.0974
68 | AGTAACAC | 0.0536
69 | CCGATCAA | 0.135
70 | GGATGAAC | 0.292
71 | GTCGGCCA | -0.277
72 | CCCTAAAA | -0.189
73 | ACCAAGCG | -0.0846
74 | AACGGACT | -0.0614
75 | ACGGCACA | -0.0917

Row | Sequence | PBM E-score
76 | GTTTATTA | 0.276
77 | GTCCTCCA | -0.076
78 | ACATCCAA | 0.0377
79 | GGGCGGAA | 0.166
80 | ATCGGAAG | 0.131
81 | TAATAGTA | 0.297
82 | CCTAGGAG | -0.194
83 | ATAACACA | 0.198
84 | ATTGTTGA | 0.114
85 | AAGTAGTG | 0.00128
86 | ATGCAAGC | 0.0876
87 | ATAGATCA | 0.214
88 | AGTTAGAC | 0.117
89 | GGTAGCAA | -0.036
90 | TATCTAGA | 0.131
91 | AGTCAGAA | 0.0702
92 | CTGGCAAC | -0.21
93 | CATGATGG | -0.183
94 | ACAGCCTG | -0.0521
95 | CGGCACAC | -0.0604
96 | AGGTAGCC | -0.202
97 | GAAGCAGC | -0.153
98 | CATATTGC | 0.0404
99 | CATCGGCC | -0.226
100 | ATCTAATC | 0.0982

Row | Sequence | PBM E-score
101 | CTAGTAAG | 0.068
102 | ACAGAAGG | -0.134
103 | CTTGAGTA | 0.0732
104 | ATTTATAA | 0.231
105 | ACGCTACT | -0.0469
106 | AGATCATC | 0.114
107 | CAGGCAGC | -0.163
108 | ACGAAGAG | 0.106
109 | AGAGCTAA | -0.0418
110 | ATACTCTG | 0.0913
111 | ATAGTTGA | 0.167
112 | AAGGAGAA | 0.069
113 | CCGGATGC | -0.178
114 | CTTGATTC | 0.133
115 | ACCCAACA | -0.0697
116 | ACTAATTG | 0.178
117 | CCCATTAG | -0.293
118 | ATATGAGA | 0.11
119 | GAGAGTGC | -0.12
120 | GAACGTGC | -0.266
121 | ACGTCGAG | -0.0484
122 | CGTGCAAA | 0.0372
123 | CCAGATCC | -0.148
124 | GGCAAACA | -0.0528
125 | ACGGTCCG | -0.154

Row | Sequence | PBM E-score
126 | GGGCACAA | -0.283
127 | GTCGAAGA | 0.139
128 | CGACGTAC | 0.0838
129 | CGTAGACG | -0.104
130 | GCGTGTAA | -0.0193
131 | AACAACTC | 0.0616
132 | CGCCCTAC | -0.151
133 | TCATATAA | 0.179
134 | AGCTGCCT | -0.188
135 | ATCGAATA | 0.0113
136 | GTACATCA | 0.126
137 | CCACCAGA | -0.0357
138 | TAAATTCA | 0.177
139 | GGGAGAGA | -0.176
140 | CTCTAGAA | -0.0529
141 | CCTTGGGC | -0.235
142 | AGCTTTAG | -0.00139
143 | GAATTGGC | -0.107
144 | ATAAACAT | 0.289
145 | GTATGCAA | 0.145
146 | AACCGGTA | 0.0283
147 | TAAGCTGA | 0.0674
148 | CAATCCAC | 0.0994
149 | ACCGTGTA | 0.0634
150 | CTCACCAC | -0.0271

Row | Sequence | PBM E-score
151 | CTGAAGAA | -0.0479
152 | TAACCTAA | 0.173
153 | CCGTCTAA | 0.00875
154 | CTGTAAGA | 0.0151
155 | ATGAAAAT | 0.223
156 | TAAGAGGA | 0.0953
157 | ATGGCCAC | -0.317
158 | AAAATTAC | 0.22
159 | CAGTTCAG | 0.122
160 | AAGGCGAG | -0.147
161 | GTTGAAAA | 0.092
162 | ACCTATAG | -0.0077
163 | CTCAAGAC | -0.133
164 | GCAAAAAC | 0.248
165 | AGGCCATG | -0.136
166 | CCTCATAC | 0.0263
167 | TCAGTAAA | 0.206
168 | CTCACCCC | -0.243
169 | CGTCCCAA | 0.00715
170 | CGCCGCGA | -0.0458
171 | GTTAACTA | 0.223
172 | CATCTCCC | -0.183
